PubChem BioAssay AID1346428 (National Center for Advancing Translational Sciences (NCATS), 2018)
The whole screen tested about 48,000 compounds, of which about 1,200 (2.5%) were called active. Roughly 2% stayed inconclusive and do not appear here.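 How the source made its calls: active means activation of at least 60% and not above a set upper limit (about 1 call in 100 departs from these limits); inconclusive means activation of 40% to 60%, or above that upper limit; inactive means activation under 40%.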 The list shows a part of the results.

biological target: Probable G-protein coupled receptor 32 (Homo sapiens) (UniProt O75388); assay: qHTS for Agonists of Human Resolvin D1 Receptor DRV1; details: CHO-K1 GPR32 beta-arrestin PathHunter luminescence, 90 min; at 76.9 µM; hits give high values; zero percent set by DMSO-only wells; further: 0% is about no effect
Procedure, shortened: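 Using DMSO wells as EC0, agonist-induced signal was taken as chemiluminescence from beta-Gal reconstituted upon beta-arrestin recruitment to GPR32 in CHO-K1 cells after 90 min compound treatment.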

UniProt O75388, sequence (O75388 whole entry, looked up): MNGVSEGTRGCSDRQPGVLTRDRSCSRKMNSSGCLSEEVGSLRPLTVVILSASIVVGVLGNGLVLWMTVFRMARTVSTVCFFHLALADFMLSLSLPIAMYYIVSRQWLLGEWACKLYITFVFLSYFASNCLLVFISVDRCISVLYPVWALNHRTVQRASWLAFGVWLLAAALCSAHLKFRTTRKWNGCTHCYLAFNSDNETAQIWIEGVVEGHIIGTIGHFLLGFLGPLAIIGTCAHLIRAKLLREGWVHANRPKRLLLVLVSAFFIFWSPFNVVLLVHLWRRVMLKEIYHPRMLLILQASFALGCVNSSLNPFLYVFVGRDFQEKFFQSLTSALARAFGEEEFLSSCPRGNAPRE

activation, inactive:
Cc1ccc(N2CCN(C(=O)CCS(=O)(=O)c3cc4c(cc3Cl)NC(=O)CO4)CC2)c(C)c1 38.6%, CC1CCN(c2nc3c(S(=O)(=O)c4cccc(Cl)c4)nnn3c3ccsc23)CC1 -20.2%, COc1cc([N+](=O)[O-])ccc1NC(=O)N1CCC2(CC1)Nc1cc(F)ccc1-n1cccc12 -30.9%, CN(C)c1ccc(CNC(=O)C2CCN(C(=O)c3ccc(-n4ccc5ccccc54)s3)CC2)cc1 -16.5%, COc1cccc(C(=O)c2cn(CC(=O)Nc3cccc(Cl)c3C)c3nc(C)ccc3c2=O)c1 -9.24%, CCCN1Cc2cccc(C(=O)Nc3ccc(OC)cc3OC)c2C1=O 39%, Cc1ccc(NC(=O)N2CCc3c([nH]c4ccccc34)C2c2ccccc2F)c(Cl)c1 (configuration not stated) -23.5%, O=C(Cn1c(=O)c2sccc2n(CC(=O)Nc2ccc(Cl)cc2Cl)c1=O)NCCc1ccccc1 -21.6%, CSc1ncc(C(=O)NCc2cccc(Br)c2)c(-c2ccccc2)n1 -6.48%, COCCN1C(=O)c2oc3ccc(C)cc3c(=O)c2C1c1ccc(C(=O)OC)cc1 (configuration not stated) -1.54%, Cc1ccc(C)c(NS(=O)(=O)c2ccc3c(c2)CCCN3C(=O)C2CCC2)c1 -0.0006%, O=C(NCc1ccccc1F)C(=O)NCC(c1ccco1)S(=O)(=O)c1ccccc1 (configuration not stated) -12.5%, Cc1ccc(C(C)C)c(OCC(=O)Nc2ccc(-c3nc4ncccc4o3)cc2C)c1 -2.28%, COc1ccc(CNS(=O)(=O)c2ccc3c(c2)C(C)(C)C(=O)N3C)cc1OC 3.99%, COC(=O)c1c(NC(=O)CCCOc2ccccc2C)sc2c1CCC2 -5.51%, COc1ccc(C(C(=O)NCc2ccccc2)N(C(=O)Cn2nnc3ccccc32)c2ccc(OC)cc2)cc1 (configuration not stated) -8.11%, Cc1ccc(CCNC(=O)c2ccc(CNS(=O)(=O)c3ccc(F)cc3)cc2)cc1 -13.5%, O=C1CC(=O)Nc2cc(S(=O)(=O)Nc3cccc(Br)c3)ccc2N1 -5.71%, COC(=O)c1cc2sc(Cl)cc2n1Cc1nc(-c2ccccc2F)oc1C 2.79%, Cc1c(C(=O)Nc2ccccc2Cl)oc2ccc(S(=O)(=O)N3CCCCCC3)cc12 -12.2%, CC(=O)N1CCc2c(sc(NC(=O)CSc3ccc(C)cc3)c2-c2nc3ccccc3s2)C1 -23.9%, Cc1cc(C)cc(NC(=O)Nc2c[nH]c(=O)[nH]c2=O)c1 19.8%
